About 2,200 (0.71%) of roughly 310,000 compounds showed an effect of 50% or more. Effects have a minus sign here. This is one part of the list.
Target: human ether-à-go-go-related gene (hERG) potassium channel (human, UniProt Q12809)
Assay: primary screen, population patch clamp on CHO cells stably expressing hERG

Sequence of human ether-à-go-go-related gene (hERG) potassium channel (Q12809 whole entry, looked up): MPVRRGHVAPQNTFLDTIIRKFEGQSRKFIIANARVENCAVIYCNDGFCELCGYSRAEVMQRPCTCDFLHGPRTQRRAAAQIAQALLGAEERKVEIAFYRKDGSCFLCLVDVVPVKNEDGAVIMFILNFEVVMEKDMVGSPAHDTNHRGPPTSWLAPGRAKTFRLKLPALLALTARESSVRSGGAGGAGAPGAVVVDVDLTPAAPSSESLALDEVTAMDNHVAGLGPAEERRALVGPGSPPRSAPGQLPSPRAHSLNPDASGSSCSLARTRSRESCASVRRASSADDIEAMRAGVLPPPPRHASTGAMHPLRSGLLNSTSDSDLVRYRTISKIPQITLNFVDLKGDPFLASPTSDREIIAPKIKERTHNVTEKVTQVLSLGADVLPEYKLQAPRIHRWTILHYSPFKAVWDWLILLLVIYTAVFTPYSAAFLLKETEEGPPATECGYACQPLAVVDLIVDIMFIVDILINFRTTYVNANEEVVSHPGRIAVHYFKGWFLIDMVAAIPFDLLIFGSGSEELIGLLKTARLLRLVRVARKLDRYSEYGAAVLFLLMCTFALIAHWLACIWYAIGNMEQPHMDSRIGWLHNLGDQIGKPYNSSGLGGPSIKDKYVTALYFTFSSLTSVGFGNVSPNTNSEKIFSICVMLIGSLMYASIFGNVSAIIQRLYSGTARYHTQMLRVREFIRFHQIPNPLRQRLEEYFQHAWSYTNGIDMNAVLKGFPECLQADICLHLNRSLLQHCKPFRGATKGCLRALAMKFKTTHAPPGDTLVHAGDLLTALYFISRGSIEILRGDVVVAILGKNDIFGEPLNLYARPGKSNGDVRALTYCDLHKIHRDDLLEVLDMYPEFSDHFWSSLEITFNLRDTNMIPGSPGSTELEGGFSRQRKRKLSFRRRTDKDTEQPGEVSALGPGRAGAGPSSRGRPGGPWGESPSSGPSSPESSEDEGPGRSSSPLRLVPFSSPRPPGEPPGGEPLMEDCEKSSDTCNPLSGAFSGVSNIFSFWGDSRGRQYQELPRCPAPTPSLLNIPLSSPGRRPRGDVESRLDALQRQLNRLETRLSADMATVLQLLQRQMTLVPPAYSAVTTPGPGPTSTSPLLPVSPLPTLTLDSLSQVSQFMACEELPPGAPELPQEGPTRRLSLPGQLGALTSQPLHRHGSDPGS

| Structure (SMILES) | hERG current change (%, negative = inhibition) at 1uM [%] |
| --- | --- |
| COc1ccc2nc(NC(=O)CSc3nnnn3C3CCCCC3)sc2c1 | 1.66 |
| COc1cccc(-n2nnc3c(=O)n(Cc4cccc(C)c4)cnc32)c1 | 4.92 |
| CC(C(=O)NCc1ccco1)n1cc([N+](=O)[O-])cn1 (centres unmarked) | 20.9 |
| O=C(NC1CC1)c1cc(F)c(F)cc1Cl | 6.81 |
| CCOC(=O)c1[nH]c2cc(OC)c(OC)cc2c1NC(=O)CN(C)C1CCCCC1 | 3.06 |
| CCOc1ccc(CCNC(=O)CS(=O)Cc2nc(-c3ccc(C)cc3)oc2C)cc1 (centres unmarked) | 11.4 |
| COc1ccccc1NC(=S)NNC(=O)c1nn(C)cc1Cl | 8.09 |
| O=C(c1ccco1)N1CCN(C(=O)c2cc(-c3ccccn3)nc3ccc(Cl)cc23)CC1 | -1.55 |
| O=C(CSc1nnc(NC(=O)C2CC2)s1)Nc1cccc(F)c1 | 15.3 |
| COc1cc(NC(=O)C2CC(=O)N(Cc3ccco3)C2)c(OC)cc1Cl (centres unmarked) | 7.92 |
| COC(=O)c1ccccc1NC(=O)c1cccc(NC(=O)CSCc2ccccc2)c1C | 1.79 |
| CC(C)(C)OC(=O)N1CCC(NC(=O)c2[nH]cnc2C(=O)Nc2ccc(Cl)cc2)CC1 | 16.9 |
| Cc1ccc(-n2nnnc2SCn2nnc3ccccc3c2=O)cc1 | 6.4 |
| COc1ccc(NS(=O)(=O)c2cnc[nH]2)cc1 | 12.8 |
| N=c1c(C(=O)NC2CCCC2)cc2c(=O)n3ccccc3nc2n1C1CCCC1 | -89.1 |
| COc1nccnc1NS(=O)(=O)c1ccc(NC(=O)c2cccc(C)c2)cc1 | 12.8 |
| Cc1ccc(NC(=O)CCc2ccc(S(=O)(=O)N3CCOCC3)cc2)c(C)c1 | 13.3 |
| COC(=O)c1c(NC(=O)CN2CCN(c3ncccn3)CC2)sc(C(N)=O)c1C | 3.71 |
| CN(c1ccccc1)S(=O)(=O)c1ccc2ccccc2c1 | 23.2 |
| COc1ccc(C(=O)c2c(-c3ccc(OC)cc3)oc3ccc(-c4cc(OC)c(OC)c(OC)c4)cc23)cc1 | 12.7 |

| Structure (SMILES) | hERG current change (%, negative = inhibition) at 1uM [%] |
| --- | --- |
| CCCCOC(=O)N1CCOCCOCCN(C(=O)OCCCC)CCOCCOCC1 | -0.118 |
| Cc1cccc(C)c1OCC(=O)Nc1cc(Cl)ccc1-n1cncn1 | 6.91 |
| Cc1cccc(-n2ccnc2SCC(=O)Nc2nccs2)c1C | 7.8 |
| Cc1ccc(CNS(=O)(=O)NCc2ccc(Cl)cc2)cc1 | 10.1 |
| Clc1ccc(Cn2cc(Br)cn2)cc1Cl | 13.1 |
| Cc1n[nH]c(=O)n1-c1ccc(OC(F)(F)F)cc1 | 13.1 |
| Cn1cc(C(O)CN2CCCCC2)c2ccccc21 (centres unmarked) | 13.4 |
| CC(=O)NN1C(=O)c2ccccc2NC1c1ccccc1F (centres unmarked) | 13.9 |
| O=C(Nc1cc(=O)[nH]c(=O)[nH]1)c1cccc(C(F)(F)F)c1 | 6.88 |
| COc1cccc(C(=O)NNc2nc(C)cc(C)n2)c1 | 12.4 |
| O=c1c2c3c(sc2nc(NCCO)n1-c1ccccc1)CCCC3 | 19.7 |
| CCOC(=O)C1CCN(C(=O)Cc2ccccc2OC)CC1 | 16.1 |
| CCOC(=O)C1CCCN(S(=O)(=O)c2ccc(-c3cc(C)no3)s2)C1 (centres unmarked) | 0.636 |
| CCSC1=N/C(=C\c2cccc(F)c2)C(=O)S1 | 14.5 |
| Cc1ccc(C(=O)N2CCN(Cc3ccc4c(c3)OCO4)CC2)cc1C | -1.56 |
| CCOc1cccc(-n2nnnc2-c2ccc(OC)cc2)c1 | 7.98 |
| CN(C)CCCOC(=O)c1cc2ccccc2o1.Cl | 13 |
| O=C(Nc1cc(C(F)(F)F)ccc1N1CCOCC1)c1ccc(Br)o1 | 9.71 |
| Cc1ccc(S(=O)(=O)n2nc(C)c(C#N)c2N)cc1 | 7.85 |
| O=C(COc1ccc([N+](=O)[O-])cc1)NCCC1=CCCCC1 | -14.5 |

| Structure (SMILES) | hERG current change (%, negative = inhibition) at 1uM [%] |
| --- | --- |
| O=P([O-])(CN1CCCCCC1)C1Cc2ccccc2C1 | 21.2 |
| Cc1csc(NC(=O)c2cc(-c3ccco3)nc3ccccc23)n1 | 1.22 |
| O=C(/C=C/N1CCOCC1)c1cc2ccccc2o1 | 5.24 |
| COc1cccc2cc(C(=O)N3CC(C)OC(C)C3)c(=O)oc12 (centres unmarked) | 10.4 |
| Cc1cccc(NC(=O)CSc2cccc3cccnc23)c1C | 13.9 |
| COC(=O)c1c(NC(=S)NNC(=O)c2ccc(Cl)s2)sc(C(=O)N(C)C)c1C | 14.2 |
| COc1ccc(C)cc1NC(=O)C1CCN(S(=O)(=O)c2c(C)noc2C)CC1 | 2.62 |
| O=C(N1CCOCC1)N1CCN(c2ccccc2)CC1 | 1.64 |
| O=C(N=C1SC2CS(=O)(=O)CC2N1Cc1ccc(Cl)cc1)C1CCCO1 (centres unmarked) | 12.4 |
| C/C(=N\NC(=O)c1cc(C2CC2)nc2ccccc12)c1ccc(O)cc1O | 12.3 |
| Cc1cc(NC(=O)C(=O)NCc2cccc(Cl)c2)no1 | -0.447 |
| COc1cccc(CNC(=O)C2CCCN(S(C)(=O)=O)C2)c1 (centres unmarked) | 12.8 |
| O=C(c1cnn(C(=O)c2ccccc2F)c1)c1ccccc1O | -4.59 |
| Cc1ccc(C)c(-n2c(CNc3ccc(F)cc3)nnc2SCC(N)=O)c1 | 2.87 |
| CC1(C)c2[nH]c3ccccc3c2C[C@H]2C(=O)N(CCCO)CC(=O)N21 | 12.9 |
| CC(C)(C)c1ccc2c(c1)N(CC(=O)N1CCCC1)C(=O)CO2 | 14.9 |
| COc1cccc(CCNC(=O)COc2cccc3c2OC(C)(C)C3)c1 | 5.32 |
| CN1CCN(S(=O)(=O)c2cccc3nsnc23)CC1 | 17.9 |
| C/C(=N\n1c(C)cc(C)c(C#N)c1=O)c1cccs1 | 5.83 |

Reference: PMC4336329 (PLoS ONE, 2015)
